Changes are numbered by the printed parent chain. Read-outs that look alike come from different tables or passages of the source.
B1: DOMAIN_12001 (protein, listed as Mandrillus leucophaeus)
chain: NSGLLTFRDVAIEFSLEEWQCLDTAQKNLYRNVMLENYRNLAFLGVAVSKPDLITCLEKDKEPWNMKRHEMVDEPPGICPH
B2: DOMAIN_12133 (protein, listed as Canis lupus)
chain: AQVLVTFKDVAVTFTREEWGQLDLDQKALYQEVMLETYGLLVSLGHPVPKPELTHLLECGQELWKGKRGLSHSTCSGDDTK
B3: DOMAIN_12498 (protein)
chain: QAEVTFEDVAVLLSQEEWGLLGPSQKGLYREVMLETYRNLLSLGAGLADPKPEVIVQLERGDELWVLDMHGAEQPSVDGSA
modifications: Muntiacus muntjak
B4: DOMAIN_11950 (protein, listed as Canis lupus)
chain: SQESVTFRDVAIDFSQEEWEWLQPAQRDLYRHVMLENYSHLVSLGLNISKPYVVSLLEQGKGPWLEKGDVRRDLFSESHGE
B5: DOMAIN_12320 (protein)
chain: SVMFSDVSIDFSLEEWEFLNLEQRDLYRDVMLENYSNLVSLGCFISKPDVISLLEQGKEPWKVVRQGRRQYPDLETNYEIK
modifications: Muntiacus muntjak
B6: DOMAIN_11825 (protein, listed as Mandrillus leucophaeus)
chain: SKAPITFGDLAIYFSQEEWEWLSPIQKDLYEDVMLENYRNLVSLGLSFRRPNVITLLEKGKAPWMIEPVRRRRAPDSGSKC
B7: DOMAIN_12467 (protein, listed as Gorilla sp.)
chain: AQTLLTFRDVAIEFSLEEWKCLDLAQQNLYRDVMLENYRNLFSVGLTVSKPGLITCLEQRKEPWNVKRQEAADGHPAMSSC
B8: DOMAIN_12147 (protein, listed as Neophocaena asiaeorientalis)
chain: AQGSLTLKDVAVDFTWEEWQLLDPDQKDLYRDVMLENYSNLVSVGYQVNKPDILSMLEQGEPPWTLEDEVHSHPHPETDKV
B9: DOMAIN_15126 (protein, listed as Callithrix jacchus)
chain: VWGPLSFMDVFVDFTWEEWQLLDPAQKCLYRSVMLENYSNLVSLGYQHTKPDIIFKLEQGEELCMVQAPIPNQCCPNKVWK
B10: DOMAIN_11865 (protein)
chain: RTGPLTFGDVAVEFSGEEWAWLDSAQRSLHRSVMLENYRNLASLGLCMSKPEMISSLEQSKEPWAVKAKSTRGRCPDLNLC
modifications: Muntiacus muntjak
B11: DOMAIN_12499 (protein)
chain: QILESLTFQDVAVDFTREEWDQLYPAQKNLYRDVMLENYRNLVALGHQLYKPEVITQLEQEERWMMGRVSPPDTHPDGENR
modifications: Muntiacus muntjak
B12: DOMAIN_11999 (protein, listed as Canis lupus)
chain: SQSLVTFGDVAVNFSQEEWEWLNSAQRNLYRSVMLENYRNLVSLGLCVSKPDMISSLEQRKEPWMVKRKLTRGRCPDLKAV
B13: DOMAIN_12158 (protein)
chain: SLGSELFRDVAIVFSQEEWQWLAPAQRDLYRDVMLETYSNLVSLGLAISKPDVISFLEQGKEPWMVERVVSRGLCPVLESR
modifications: Nomascus leucogenys
B14: DOMAIN_11858 (protein, listed as Canis lupus)
chain: PQKSVTFEDVAVYFTQTEWDGLSPAQRALYRDVMLENYGNVASLGFSLLKPAVISQLEGAGELEGPSPLAAGTEIGPQGLW
B15: DOMAIN_12261 (protein, listed as Neophocaena asiaeorientalis)
chain: B14 chain with S47P, A52T, A60G, A70T, A71S, E74G, I75T, P77H
B16: DOMAIN_12191 (protein)
chain: B14 chain with P1R, Q2M, G21S, P24T, S47P, A60G, A71S, T73A, E74G, I75T
modifications: Muntiacus muntjak
B17: DOMAIN_16444 (protein, listed as Acinonyx jubatus)
chain: FQASVVFEDVAVNFTPEEWALLNRGQRKLYRDVMLETCRNLSAVGKDGSIPSLVFSEKQKFHSSGDLTRMQEGLLRSPLVE
B18: DOMAIN_11928 (protein, listed as Neophocaena asiaeorientalis)
chain: SQESVSFEDVAVYFTQNQWASLDSAQRTLYREVMLENYANVTSLAAFPFPKPDLIFQLERGKAPGGLDPWTPIRRKVRGVC
B19: DOMAIN_11923 (protein, listed as Sus scrofa)
chain: SQVTVTFEDVAVLFSRDEWRKLGPSQKNLYQDVMLENYSNLVSLGLPFSKPKVISLLQQGEDPWKVEKESPGSFSPGWKSS
B20: DOMAIN_12395 (protein, listed as Ailuropoda melanoleuca)
chain: QSLVTFGDVAVDFSREEWEWLNSAQRTLHRDVMLENYRNLVSLGLCVSKPDMISSLEQRKEPWMLKRKLTRGRCPDLKTMQ
B21: DOMAIN_12079 (protein)
chain: MGLLTFQDVTVDFTQEEWECLDLGQRGLYRDVMLENYGNLACLGLVVSKPDLVTFLEQMKDPWNVRRIETAIYPGMCLLNI
modifications: Muntiacus muntjak
B22: DOMAIN_11868 (protein, listed as Mandrillus leucophaeus)
chain: FQEPVTFEDVAVYFTQNEWASLHPMQRALYREVMLENYANVTSLSAFPFSKPDLIFQLEQGEAAWGPDPWTLAGGEALRGM
B23: DOMAIN_12210 (protein, listed as Bos indicus)
chain: TQVSVTFDDVAVTFTQEEWGHLDPAQRTLYREVMLETCRLLMSLGCPVPRPELIYQQEHGQELWTVKRDLSRSTCAGYSSE
B24: DOMAIN_12214 (protein)
chain: GLVMFKDVAIDVSQEEWECLNPAQRNLYKDVMLENYSNLVSLGLSVSKPAMITSLEQGKEPWMVLREVTGERCPDLVSKCE
modifications: Muntiacus muntjak
B25: DOMAIN_12313 (protein, listed as Bos indicus)
chain: SVTFEDVAVYFSWEEWALLDEAQRCLYHDVMLENFALTSSLGCWHGAEDKGAPSEKSISVEGVSQIKTLKADSCPQKGQPF
B26: DOMAIN_12463 (protein, listed as Ailuropoda melanoleuca)
chain: RPRAVKFADVAVYFSPEEWGCLRPAQRALYRDVMRETYGHLGALGCAGPKPALISWLERNTDEWEPAALDPRECPRGVTVQ
B27: DOMAIN_12365 (protein)
chain: SYEGSVSFRDVAIDFSREEWRHLDLSQRNLYRDVMLETYSHLLSVGYQVPEAEVVMLEQGKEPWALQGERPRHSCPGEKLW
modifications: Nomascus leucogenys
B28: DOMAIN_11851 (protein)
chain: VQEPVTFKDVAVDFTQEEWGQLDLVQRTLYRDVMLETYGHLLSVGNQIAKPEVISLLEQGEEPWSVEQACPQRTGPEWVRN
modifications: Nomascus leucogenys
B29: DOMAIN_14755 (protein)
chain: MGQLTFNDVTIEFSLEEWQCLDKPQQNLYREVMLENYRNLVFLGIAVSKPDLITCLKQGKEPWNIRRHEMVTKPPAMCSHF
modifications: Cebus imitator
B30: DOMAIN_11925 (protein, listed as Mandrillus leucophaeus)
chain: MEGLVMFQDLFIDFSQEEWECLDAAQKDLYRDVMMENYSSLVSLGLCIPKPDVISLLEQGKEPWMVSRDVLGGWCPDRLKK
B31: DOMAIN_12092 (protein, listed as Bos mutus)
chain: QEPVTFEDVAVYFTQNQWASLDSAQRALYREVMLENYANVASLVVSPFPRPDLISQLERGEAPWDPDPWEAEDLRGICPGG
B32: DOMAIN_12195 (protein, listed as Canis lupus)
chain: FQGSLTFSDVAIGFSQQEWECLDPVQKSLYRDVMMENYGNLVSLGYSISKPDVITLLEQGKEPWMVLREETKRWDTDSFLS
B33: DOMAIN_16806 (protein, listed as Sapajus apella)
chain: MVSFEDVAVLLSQEEWDCLIPAQRGLYRDVMLETYGNLVSLGLQASKPDVISRLEQGDEPWTTHTLRMQGSWSWRHKREGC
B34: DOMAIN_12051 (protein)
chain: EVQETLTFDDVAVAFTWEEWQLLAPAQKALYRDVMLENHSNLVSVGFQASTPEVLSKLDQGEPWTMDDEVHCRTRSEVWKF
modifications: Muntiacus muntjak
B35: DOMAIN_11996 (protein, listed as Canis lupus)
chain: SEESVTFEDVAIYFSENEWTGLAPAQRVLYRDVMLENYGAVAALAAFPFPKPALISQLERGEAPWCKAPQGALDGEGPRGI
B36: DOMAIN_11933 (protein, listed as Neophocaena asiaeorientalis)
chain: AHGSVMFSDVSIDFSQEEWDYLDLEQRDLYRDVMLENYSNLVSLGCFVSKPDVISLLEQGKEPWKVVRKGRRRYPDLETNY
B37: DOMAIN_12187 (protein, listed as Canis lupus)
chain: B36 chain with H2Q, S8N, D13V, D20E, R27K, V48I, P75L, T79N, N80R

Tested on: HBEGF locus
Assay type: cell-based, human
[1] = repressor domain in dXR, repression of the HBEGF gene, abundance of domain in library after vs before diphtheria toxin selection
[2] = high-throughput screen of dXR repression of the HBEGF gene, change in abundance of each domain in the library before and after diphtheria toxin selection

Molecule | Log2 (fold change) [1] | Log2 (fold change) [2]
B1 | 2.4384 | –
B2 | 3.0204 | –
B3 | 2.8947 | –
B4 | 4.3869 | –
B5 | 2.5075 | –
B6 | 3.9893 | –
B7 | 2.9575 | –
B8 | 2.6974 | –
B9 | – | 2.9781
B10 | 3.0474 | –
B11 | 2.2932 | –
B12 | 3.7891 | –
B13 | 3.0332 | –
B14 | 3.6419 | –
B15 | 2.7989 | –
B16 | 3.6138 | –
B17 | – | 3.2246
B18 | 3.751 | –
B19 | 3.2271 | –

Molecule | Log2 (fold change) [1] | Log2 (fold change) [2]
B20 | 3.1504 | –
B21 | 2.4029 | –
B22 | 3.5158 | –
B23 | 3.6136 | –
B24 | 2.613 | –
B25 | 2.6903 | –
B26 | 3.2567 | –
B27 | 3.5626 | –
B28 | 3.0241 | –
B29 | – | 3.1667
B30 | 3.5582 | –
B31 | 3.1752 | –
B32 | 2.9023 | –
B33 | – | 3.9386
B34 | 2.7925 | –
B35 | 3.0831 | –
B36 | 4.1135 | –
B37 | 3.6477 | –

— patent US12551573B2, “Compositions and methods for the targeting of PCSK9” (Scribe Therapeutics Inc., priority 2022, dated 2026)
